Screen size: about 310,000 compounds; about 14,000 (4.5%) showed an effect of 50% or more. Effects have a minus sign here. This is one part of the list.
molecular target: human ether-à-go-go-related gene (hERG) potassium channel (human, UniProt Q12809); assay: primary screen, population patch clamp on CHO cells stably expressing hERG
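Note: peak tail current of the secondary pulse compared with the same well before compound.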

Sequence of human ether-à-go-go-related gene (hERG) potassium channel (Q12809 whole entry, looked up): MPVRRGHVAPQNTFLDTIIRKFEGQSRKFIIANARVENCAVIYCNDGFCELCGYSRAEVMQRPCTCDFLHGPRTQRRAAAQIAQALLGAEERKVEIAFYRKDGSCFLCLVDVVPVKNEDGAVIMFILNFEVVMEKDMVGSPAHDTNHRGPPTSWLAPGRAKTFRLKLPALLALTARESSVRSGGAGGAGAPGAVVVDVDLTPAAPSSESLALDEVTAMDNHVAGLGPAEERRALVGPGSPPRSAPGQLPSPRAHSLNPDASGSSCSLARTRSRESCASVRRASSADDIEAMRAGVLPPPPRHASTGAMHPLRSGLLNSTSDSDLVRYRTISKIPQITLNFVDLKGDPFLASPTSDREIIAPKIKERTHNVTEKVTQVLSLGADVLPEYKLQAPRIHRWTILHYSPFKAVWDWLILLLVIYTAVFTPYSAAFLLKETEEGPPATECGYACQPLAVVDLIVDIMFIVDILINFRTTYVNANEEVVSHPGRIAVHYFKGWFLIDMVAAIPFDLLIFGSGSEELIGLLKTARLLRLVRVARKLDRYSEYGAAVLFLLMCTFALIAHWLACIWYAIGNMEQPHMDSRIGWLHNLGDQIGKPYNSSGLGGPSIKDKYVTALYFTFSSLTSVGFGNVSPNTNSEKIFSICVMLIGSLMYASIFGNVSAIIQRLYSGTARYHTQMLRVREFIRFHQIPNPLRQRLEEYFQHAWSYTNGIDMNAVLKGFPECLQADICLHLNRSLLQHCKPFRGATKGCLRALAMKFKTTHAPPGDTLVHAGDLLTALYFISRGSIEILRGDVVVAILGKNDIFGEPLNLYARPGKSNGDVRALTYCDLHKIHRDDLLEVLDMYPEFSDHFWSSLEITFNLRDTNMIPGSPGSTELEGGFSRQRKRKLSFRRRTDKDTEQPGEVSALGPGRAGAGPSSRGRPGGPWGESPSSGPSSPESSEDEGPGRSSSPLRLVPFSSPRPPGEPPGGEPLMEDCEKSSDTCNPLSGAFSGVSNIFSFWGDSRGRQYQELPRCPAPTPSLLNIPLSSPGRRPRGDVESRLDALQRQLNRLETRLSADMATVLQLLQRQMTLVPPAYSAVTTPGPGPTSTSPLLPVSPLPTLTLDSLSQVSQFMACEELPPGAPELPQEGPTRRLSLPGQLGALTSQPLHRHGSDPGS

Row | SMILES | hERG current change (%, negative = inhibition) at 10uM [%]
1 | Cc1ccc(-c2noc(CSc3nnnn3C3CCCCC3)n2)cc1 | -1.67
2 | CC1CN(C(=O)CSc2nc(-c3ccccc3)cs2)CC(C)O1 (stereo not drawn) | 3.57
3 | C=CC[n+]1c(/C=C/c2ccc(OC(C)=O)c(OC)c2)ccc2ccccc21.[Cl-] | -25.9
4 | O=C(Nc1ccc(S(=O)(=O)N2CCCCC2)cc1)c1ccccc1F | 10
5 | CCc1nccn1S(=O)(=O)c1ccc(OC)c(C)c1C | 8.72
6 | Cc1cc(O)c(C(=O)/C=C/c2ccccc2)c(=O)o1 | 8.4
7 | C[C@H](NC(=O)c1nc[nH]c1C(=O)N[C@@H](C)c1ccccc1)C(=O)OC(C)(C)C | -1.83
8 | O=C(O)c1cc(S(=O)(=O)N2CCN(c3ccccn3)CC2)ccc1Cl | 19.6
9 | Cc1cc(NC(=O)CCCS(=O)(=O)c2nc(-c3cccs3)cc(C(F)(F)F)n2)no1 | -1.15
10 | O=C(Nc1ccc([N+](=O)[O-])cc1)c1nc[nH]c1C(=O)NC1CCCCC1 | 16.2
11 | CC1Oc2ccccc2C=C1/C=C1/SC(N2CCOCC2)=NC1=O (stereo not drawn) | -41.8
12 | CCOC(=O)C1CCCN(C2CCN(Cc3nc(-c4ccccc4)no3)CC2)C1 (stereo not drawn) | -56.5
13 | Cc1cc(-c2nnc(SCC(=O)NC3CC3)n2C(C)C)cs1 | -23
14 | COc1ccccc1CCC(=O)Nc1ccc(S(=O)(=O)Nc2cc(C)nc(C)n2)cc1 | 12
15 | CC(C)(C)c1ccc(C(=O)N2CCC(=O)N(C(COCc3ccccc3)Cc3ccccc3)CC2)cc1 (stereo not drawn) | -6.83
16 | COc1ccc(C2Nc3ccccc3NC3=C2C(=O)CC(C)(C)C3)c(OC)c1OC (stereo not drawn) | -46.8
17 | CCN(CC)c1ccc(N2C(=O)C3CCCCC3C2=O)cc1[N+](=O)[O-] (stereo not drawn) | 2.43
18 | Cc1ccc(Oc2nc3ccccc3n3c(C)nnc23)c(C)c1 | -3.58
19 | CCN1C(=O)N/C(=C/c2ccc(C)o2)C1=O | 4.76
20 | CCOP(=S)(OCC)Oc1nc(Cl)c(Cl)cc1Cl | 14.2
21 | Cc1ccc(C2(CC(=O)O)CCOC(C)(C)C2)cc1 (stereo not drawn) | 9.86
22 | CC(C)(C)C(=O)Nc1c2c(nn1-c1cccc(Cl)c1)CS(=O)(=O)C2 | -14.1
23 | Cc1cc(O)c(-c2cc(C(=O)Nc3ccc(S(=O)(=O)N4CCOCC4)cc3)[nH]n2)cc1C | -5.54
24 | Cc1ccc(-n2nc(C(N)=O)nc2-c2ccccc2)cc1 | 6.42
